Among all 110,000 compounds or so, about 40 (0.04%) were called active. The inconclusive results got no clear call from the source; some entries with a clear call stand among them for comparison. Calls come from the whole dose curve; as a rule, active = well fitted curve in the direction sought with a large enough effect in the signal ratio (not every such curve was filed as active); inconclusive = small, poorly fitted or top-dose-only effect, or a change in a side signal; inactive = flat fitted curve, though single readings scatter; the % refers to the signal ratio. Where the call is inconclusive, the potency comes from a doubtful curve fit.
Test: IkB Signaling;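 for IkBa stabilization activation: 0% = basal untreated cells and 100% = reference inhibitor full response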
Conditions: ABC-DLBCL IkBa-CBG/CBR dual luciferase ratio (green luciferase fused to IkBa over red control in OCI-Ly3 lymphoma cells), 4 h; IkBa stabilization activation: at 57.1 µM (top of the series), scaled: untreated 0%, proteasome inhibitor 100% unless noted
How it was run: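 In this assay, an IκBα–CBG68 fusion accumulates when IKK-driven degradation is blocked; native CBR normalizes for cell number. OCI-Ly3 cells were treated 4 h with compound and doxycycline, then green and red light read after Chroma-Glo addition.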
Potency is the fitted concentration of half-maximal effect.

Structure (SMILES) | IkBa stabilization activation | Potency
O=C(NC1CCCC1)c1ccc2c(c1)N(Cc1ccc(F)cc1)C(=O)c1ccccc1S2 | inconclusive: 0.157% [signal inhibitor] | 
COc1ccc(NC(=O)C(Cc2ccccc2)n2cccc2)c(OC)c1 (stereo unspecified) | inconclusive: 0.991% [signal inhibitor] | 
COc1ccc(-c2noc(-c3ccccc3NC(=O)c3cc(OC)c(OC)c(OC)c3)n2)cc1 | inconclusive: 6.2% [signal inhibitor] | 
CCOc1ccc(NC(=O)CN2C(=O)C(c3ccccc3)=NC23CCCCCC3)cc1 | inconclusive: 2.56% [signal inhibitor] | 
Cc1cccc(Cn2c(C)c(C)c3cc(C(=O)NCc4ccc(C)o4)ccc32)c1 | inconclusive: -2.23% [signal inhibitor] | 
CCOc1ccc(CCNC(=O)c2cc3c(-c4cccc(OC)c4)nn(C)c3s2)cc1OCC | inconclusive: 0.238% [signal inhibitor] | 
Cc1cccc(C(CC(=O)NCC2(c3ccccc3)CCCC2)c2ccccc2)c1O (stereo unspecified) | inconclusive: 2.6% [signal inhibitor] | 
CN(c1ccc(Cl)cc1)c1cc(=O)n(C)c2ccccc12 | inconclusive: 13.2% [signal inhibitor] | 
CCCC(=O)N(C)c1nnc(-c2ccc(OC)cc2)s1 | inactive: -2.39% | 
COc1cccc(NC(=O)COc2ccccc2C(N)=O)c1 |  | inconclusive: 25.1 µM [signal inhibitor, partial curve]
Cc1nc2nc(SCC(=O)NC(C)c3ccccc3)nn2c(C)c1Cc1c(F)cccc1Cl (stereo unspecified) | inconclusive: 17.9% [signal inhibitor] | 
Cc1ccc(S(=O)(=O)N2CCN(C(=O)CSc3nc4ccccc4c(=O)[nH]3)CC2)cc1 | inconclusive: 0.916% [signal inhibitor] | 
COC(=O)c1ccc(NC(=O)CC2C(=O)N(c3cccc(OC)c3)C(=O)N2Cc2cccc(OC)c2)cc1 (stereo unspecified) | inconclusive: 0.562% [signal inhibitor] | 
Cc1cc(NC(c2cccnc2)c2ccc3cccnc3c2O)no1 (stereo unspecified) | inactive: 1.85% | 
CCOc1ccc2nc(N3CCCN(C(=O)Nc4ccccc4C)CC3)c(C#N)cc2c1 | inconclusive: 4.21% [signal inhibitor] | 
Cc1cccc(C(=O)Nc2ccc(N3CCC(CCN4CCOCC4)CC3)c(C(=O)O)c2)c1 | inactive: -2.17% | 
CCOC(=O)Cc1[nH]nc2c1C(C1C=CCCC1)C(C#N)=C(N)O2 (stereo unspecified) | inconclusive: -1.23% [signal inhibitor] | 
O=C(Nc1ccc(S(=O)(=O)N2CCC(c3nc4ccccc4s3)CC2)cc1)c1ccccc1F |  | inconclusive: 31.6 µM [signal inhibitor]
COc1ccccc1CNc1ncnc2ccc(-c3ccc(N(C)C)cc3)cc12 | inactive: 9.27% [at 11.4 µM, scaled: untreated 0%, proteasome inhibitor 100%] | 
CCOC(=O)Cc1csc(NC(=O)CSc2nnnn2-c2ccc(CC)cc2)n1 | inconclusive: 9.22% [signal inhibitor] | 
COc1ccc(-c2nnc(SC(=O)N3c4ccccc4Sc4ccccc43)o2)cc1 | inconclusive: 7.98% [signal inhibitor] | 
Cc1csc(NC(=O)C(Cc2ccccc2)n2cccc2)n1 (stereo unspecified) | inconclusive: 1.53% [signal inhibitor] | 

Structure (SMILES) | IkBa stabilization activation | Potency
CCCCCOc1ccc(C(=O)N(Cc2ccccc2)C2CCS(=O)(=O)C2)cc1 (stereo unspecified) | inconclusive: -0.0497% [signal inhibitor] | 
N#Cc1cccc(NC(=O)NCCc2c[nH]c3ccccc23)c1 | inconclusive: -3.64% [signal inhibitor] | 
Cc1ccc2nc(/C(C#N)=C/c3ccc(-c4cccc(Cl)c4)o3)[nH]c2c1 | inconclusive: 9.43% [signal inhibitor] | 
COc1ccc(-c2nc3cnc(Oc4cccc(Cl)c4)nc3n(C3CC3)c2=O)cc1 | inactive: -1.34% [at 11.4 µM, scaled: untreated 0%, proteasome inhibitor 100%] | 
N=C1CCC[C@@H]1C(=S)SCCC(N)=O | inactive: 0.123% [at 11.4 µM, scaled: untreated 0%, proteasome inhibitor 100%] | 
CN(C)c1ccc(CN(CC2CCCO2)C(=O)COc2ccc(Cl)cc2)cc1 (stereo unspecified) | inconclusive: 2.16% [signal inhibitor] | 
CCc1ccc(-n2c(C)nc3cc(C(=O)NCCc4ccccc4)ccc32)cc1 | inconclusive: -2.45% [signal inhibitor] | 
O=C1Cn2c(nc3ccccc32)N1c1ccccc1F | inactive: -2.44% | 
CC(=O)N1CCCc2cc(S(=O)(=O)N3CCCC(C(=O)NCc4ccc(Cl)cc4)C3)ccc21 (stereo unspecified) | inconclusive: -2.93% [signal inhibitor] | 
Cc1cc(-n2c(=O)c(C#N)cc3c(=O)n4cccc(C)c4nc32)no1 | inactive: 3.08% | 
CCCOC(=O)C1C2C=CC3(CN(c4cccc(Cl)c4)C(=O)C13)O2 (stereo unspecified) | inactive: -4.28% | 
Cc1cc(O)c(C(c2cccc(Cl)c2)N2CCN(c3ccccc3)CC2)c(=O)n1Cc1ccco1 (stereo unspecified) | inconclusive: 11.9% [signal inhibitor] | 
COCCCn1c(=N)c(C(=O)NC2CCCC2)cc2c(=O)n3ccccc3nc21 | inactive: -3.35% | 
CCc1cc(C(=O)Cc2cnn(-c3ccccc3)c2)c(O)cc1O | inconclusive: -3.59% [signal inhibitor] | 
CCCn1c(=NC(=O)c2ccc3c(c2)OCO3)c(C#N)cc2c(=O)n3cccc(C)c3nc21 | inactive: 4.04% | 
CCc1nc(N2CCOCC2)c(C#N)c2c1COC(C)(C)C2 | inactive: -1.79% | 
CCOC(=O)c1c(NC(=O)c2ccco2)sc(C(=O)N2CCCC2)c1C | inactive: -4.48% | 
CC(C)Cc1nn2c(=O)cc(COC(=O)c3ccccc3NC(=O)c3ccccc3)nc2s1 | inconclusive: 11.3% [signal inhibitor] | 
Cc1ccc(S(=O)(=O)N2CCN(C(=O)CSc3nc4ccccc4c(=O)[nH]3)CC2)c(C)c1 | inconclusive: 2.52% [signal inhibitor] | 
CCOC(=O)N1CCc2c(sc3c2c(=O)n(Cc2ccccc2)c(=O)n3Cc2ccc(C)cc2)C1 | inconclusive: 1.29% [signal inhibitor] | 
Cc1ccc(-c2noc(C3CCN(C(=O)Nc4ccc(C#N)cc4)CC3)n2)o1 | inconclusive: 1.96% [signal inhibitor] | 
CCOc1ccccc1CNC(=O)c1ccc(Cn2c(SCc3ccccc3)nc3cccnc32)cc1 | inconclusive: 4.83% [signal inhibitor] | 

Structure (SMILES) | IkBa stabilization activation | Potency
N#CC1=C2SCC(O)(c3ccccc3)N2C(=O)CC1c1cccs1 (stereo unspecified) |  | inconclusive: 6.31 µM [signal inhibitor, partial curve]
Cc1cc(C)c2nc(NC(=O)c3ccc(S(=O)(=O)N4CCC(C)CC4)cc3)sc2c1 | inconclusive: 0.222% [signal inhibitor] | 
CCOC(=O)c1ccc(NC(=O)CC2C(=O)N(c3ccc(F)cc3)C(=O)N2Cc2ccc(C)cc2)cc1 (stereo unspecified) | inconclusive: 1.29% [signal inhibitor] | 
COc1ccc(Nc2cc(C(=O)NCCCN(C)Cc3ccccc3)c3ccccc3n2)cc1 | inconclusive: -3.59% [signal inhibitor] | 
CCOC(=O)c1ccccc1NC(=O)CSc1nnc(Cc2cccn2C)n1-c1ccc(C)cc1 | inconclusive: 4.3% [signal inhibitor] | 
CCOc1cc(C2Sc3ccccc3NC3=C2C(=O)c2ccccc23)ccc1O (stereo unspecified) | inconclusive: -0.61% [signal inhibitor] | 
COc1ccc(C(=O)Nc2ccccc2-c2nc3ccccc3s2)c(OC)c1 | inconclusive: -2.17% [signal inhibitor] | 
CCOC(=O)c1cnc2ccc(Cl)cc2c1Nc1ccc(OCC)cc1 | inconclusive: 0.977% [signal inhibitor] | 
CCOc1ccc(-c2cc3nc(C4CCN(C(=O)OC(C)(C)C)CC4)c(C(=O)O)cn3n2)cc1 | inactive: 0.485% | 
COc1ccc(-c2nc(C#N)c(NCc3ccc(F)cc3)o2)cc1OC | inconclusive: 0.0678% [signal inhibitor] | 
CN(C)c1ccc(C2N([C@H](C#N)c3ccc(N(C)C)cc3)CCCN2[C@@H](C#N)c2ccc(N(C)C)cc2)cc1 (stereo partly specified) | inactive: -0.669% [at 11.4 µM, scaled: untreated 0%, proteasome inhibitor 100%] | 
CC(C)OCCCNC(=O)CSc1c2c(nc3ccc(Cl)cc13)CCCC2 |  | inconclusive: 25.1 µM [rising, partial curve]
Cc1cccn2c(=O)cc(COc3cccc(NC(=O)COc4ccccc4)c3)nc12 | inactive: 3.68% | 
Cc1noc(C)c1COC(=O)c1cc(=O)[nH]c2ccccc12 | inactive: -0.1% | 
CC(=O)c1ccc(NC(=O)CCc2nc(-c3ccc(C)cc3)no2)cc1 | inconclusive: 4.36% [signal inhibitor] | 
CC(=O)c1ccc(NC(=O)CSc2nc(C3CCCC3)nc3c2c(=O)n(C)c(=O)n3C)cc1 | inconclusive: 1.68% [signal inhibitor] | 
Cc1c(NC(=O)c2ccc(Br)o2)cccc1-c1nc2ccccc2o1 | inconclusive: 8.96% [signal inhibitor] | 
COc1ccccc1NC(=O)c1c(NC(=O)c2ccco2)sc2c1CCC2 | inactive: 4.18% | 
CCCSc1nc2sc3c(c2c(=O)n1-c1cccc(Br)c1)CC(C)(C)OC3 | inactive: 1.69% | 
Cc1ccccc1Cn1c(SCc2ccc(C(=O)NC3CCCC3)cc2)nc2ccncc21 | inconclusive: 0.733% [signal inhibitor] | 
CC(=O)Nc1ccc(Nc2ncnc3c2c(-c2ccccc2)cn3-c2ccc(C)c(Cl)c2)cc1 | inconclusive: 8.75% [signal inhibitor] | 
COc1ccccc1N=c1scc(-c2ccc(S(=O)(=O)N3CCCC3)cc2)n1C | inconclusive: -3.32% [signal inhibitor] | 

From PubChem BioAssay AID445 (National Center for Advancing Translational Sciences (NCATS), 2006)
